# Hit rate of the full screen: of about 360,000 compounds, about 25,000 (6.9%) were called active. Inconclusive means that the source gave no clear call. Such entries were picked first, then a sample of the others. The call rests on the fitted dose curve; in most records, active means well fitted inhibition curve with a large enough effect; inconclusive means small, poorly fitted or top-dose-only effect; inactive means flat fitted curve, though single readings scatter. A potency beside an inconclusive call is a rough fit, not a confirmed value.
# Target: Luciferin 4-monooxygenase (Photinus pyralis) (UniProt P08659)
# Assay: qHTS profiling assay for firefly luciferase inhibitor/activator using purifed enzyme and Km concentrations of substrates (counterscreen for miR-21 project); further: nearly all actives have a fitted effect of over 55% in size;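 on activity change, negative = inhibition: plate controls were vehicle for no effect and reference inhibitor for full effect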
# Conditions: purified FLuc, luminescence inhibition; activity change, negative = inhibition: at 57.5 µM (top of the series)
# Method in brief: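 Purified P. pyralis luciferase (10nM final) with 10uM D-luciferin and 10uM ATP (Km levels) in 50mM Tris acetate pH 7.5, 10mM Mg acetate, 0.01% Tween-20, 0.05% BSA; qHTS 6-point titration, ~60 µM downward; luminescence read.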
# Potency means the concentration at half of the fitted maximal effect; tags describe the fitted curve by direction and shape.
# UniProt P08659, sequence (P08659 whole entry, looked up): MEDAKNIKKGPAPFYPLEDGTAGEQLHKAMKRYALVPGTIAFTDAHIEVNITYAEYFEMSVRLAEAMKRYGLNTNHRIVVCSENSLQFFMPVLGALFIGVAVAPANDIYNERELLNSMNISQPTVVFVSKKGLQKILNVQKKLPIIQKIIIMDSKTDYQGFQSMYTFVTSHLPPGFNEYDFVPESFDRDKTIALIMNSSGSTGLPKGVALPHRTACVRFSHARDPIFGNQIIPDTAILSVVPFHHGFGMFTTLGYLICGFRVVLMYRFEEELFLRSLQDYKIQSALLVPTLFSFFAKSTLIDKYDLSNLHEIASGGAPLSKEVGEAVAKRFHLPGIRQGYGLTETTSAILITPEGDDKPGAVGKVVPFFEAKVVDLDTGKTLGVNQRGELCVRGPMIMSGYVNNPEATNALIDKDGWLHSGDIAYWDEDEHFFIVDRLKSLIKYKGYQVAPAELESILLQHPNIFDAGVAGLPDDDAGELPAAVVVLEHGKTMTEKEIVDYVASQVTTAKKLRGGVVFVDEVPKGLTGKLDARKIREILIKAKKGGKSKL
SMILES,"activity change, negative = inhibition",Potency
Cc1csc(NC(=O)[C@@H]2CCCN2C(=O)c2cccs2)n1,inactive: 5.99%,
O=C(O)c1ccc(/C=N/Nc2nc(N3CCCCC3)nc(N3CCCCC3)n2)cc1,,"inconclusive: 37.9 µM [inhibitor, partial curve, poor fit]"
COc1ccc(-c2noc(N3CCC(C(=O)NCCCN4CC(C)CC(C)C4)CC3)n2)cc1 (configuration not stated),,"inconclusive: 21.3 µM [inhibitor, single point]"
COc1cccc(C#Cc2c(CO)[nH]c3ccccc23)c1,,"inconclusive: 26.9 µM [inhibitor, partial curve, poor fit]"
CCOC(=O)c1[nH]c(C)c(C(=O)OCC)c1C,,"inconclusive: 19 µM [inhibitor, partial curve]"
CC(C)(C)OC(=O)N1CCC(c2c(C(=O)NC3CCN(Cc4ccccc4)CC3)cnn2-c2cccc(F)c2)CC1,inactive: -3.09%,
CCN(C(=O)CSc1nc2ccccc2n1C)C1CCS(=O)(=O)C1 (configuration not stated),inactive: 2.19%,
COc1ccc(/C=N/Nc2nc(NCc3ccco3)nc(Nc3ccc(OC)cc3)n2)cc1,,"inconclusive: 13.5 µM [inhibitor, partial curve]"
Cc1onc(-c2ccccc2)c1C(=O)N1CCCC(C(F)(F)F)C1 (configuration not stated),inactive: 11.9%,
CCOC(=O)C1CCN(C(=O)Nc2ccc3nc(-c4ccco4)c(-c4ccco4)nc3c2)CC1,,"inconclusive: 23.9 µM [inhibitor, partial curve]"
O=C(O)c1cccc(S(=O)(=O)Nc2cccc3ccccc23)c1,,active: 23.9 µM
O=C(/C=N/NC(=O)c1ccccc1Br)c1ccccc1,,active: 9.53 µM
Cc1c(-c2ccccc2)[n+](=O)c2c(n1[O-])CCCC2,inactive: 4.99%,
Cc1ccc(O)c(/C=N/NC(=O)C2=NNC(c3ccccc3)(c3ccccc3)C2)c1,,"inconclusive: 26.9 µM [inhibitor, single point]"
CC1CCCC/C1=N\Nc1ccc(S(N)(=O)=O)cc1[N+](=O)[O-] (configuration not stated),,"inconclusive: 37.9 µM [inhibitor, partial curve, poor fit]"
Cc1ccc(N=Cc2cccc(O)c2O)c(C)c1,,"inconclusive: 37.9 µM [inhibitor, single point]"
CC1=C(C(=O)OC2CCCC2)C(c2ccc(F)cc2F)CC(=O)N1 (configuration not stated),inactive: -0.0435%,
CCOc1cc(C(=O)Nc2ccc3oc(-c4ccc(F)cc4Cl)nc3c2)cc(OCC)c1OCC,,"inconclusive: 6.01 µM [inhibitor, partial curve, poor fit]"
Cn1c(SCCOc2ccccc2Cl)nnc1-c1cccs1,,"inconclusive: 19 µM [inhibitor, partial curve, poor fit]"
COc1ccc(N(Cc2cccs2)C(=O)c2ccccc2C)cc1,,"inconclusive: 19 µM [inhibitor, partial curve, poor fit]"
Cc1cc(Cl)ccc1OCCCC(=O)NNC(=O)c1ccncc1,,"inconclusive: 26.9 µM [inhibitor, single point]"
COc1cc(/C=N/N2C(=O)CSC2=S)ccc1O,,"inconclusive: 0.675 µM [inhibitor, partial curve, poor fit]"
C/C(CC(=O)Nc1ccc2c(c1)OCCO2)=N\NC(=O)COc1ccccc1,,"inconclusive: 30.1 µM [inhibitor, partial curve, poor fit]"
COc1ccccc1NS(=O)(=O)c1cccc(NC(=O)Nc2ccccc2)c1,,"inconclusive: 37.9 µM [inhibitor, single point]"

SMILES,"activity change, negative = inhibition",Potency
CCOC(=O)c1c(C)c(/C=N/Nc2ccccc2)n(C)c1C,,"inconclusive: 23.9 µM [inhibitor, single point]"
COc1cccc(/C=N/NC(=O)c2cc(C34CC5CC(CC(C5)C3)C4)[nH]n2)c1,,"inconclusive: 19 µM [inhibitor, partial curve]"
COc1ccc2c(c1)CCC1C2=NN(/C(C)=C/C(C)=O)C1c1cccc(F)c1 (configuration not stated),,"inconclusive: 21.3 µM [inhibitor, partial curve]"
COc1cc(NS(=O)(=O)c2ccc(NC(=O)C(C)Oc3ccc(Cl)cc3Cl)cc2)nc(OC)n1 (configuration not stated),,"inconclusive: 9.53 µM [inhibitor, partial curve]"
O=C(O)CC(NS(=O)(=O)c1ccc(Cl)s1)c1ccccc1 (configuration not stated),,"inconclusive: 9.53 µM [inhibitor, partial curve, poor fit]"
Cc1nc2cccnc2n1-c1cccc(C(=O)NCc2ccc(OC(C)C)cc2)c1,inactive: -8.04%,
C(=N\Nc1nncc2ccccc12)/c1ccccc1,,active: 0.536 µM
CCC12CN3CC(C)(CN(C1)C3c1ccc(O)cc1O)C2=O (configuration not stated),inactive: 1.84%,
Cc1ccc2nc(/C(C#N)=C/c3cccc(Br)c3)[nH]c2c1,,"inconclusive: 21.3 µM [inhibitor, partial curve, poor fit]"
O=C(Cc1csc2ccccc12)NCc1cccc(Br)c1,,"inconclusive: 21.3 µM [inhibitor, partial curve]"
Cc1noc(C)c1CSc1nc2ccccc2s1,,"inconclusive: 21.3 µM [inhibitor, single point]"
COc1cccc(N=Nc2c(N)[nH][nH]c2=O)c1,,active: 15.1 µM
CCCCn1cnc(C(=O)OCC)c1N,,"inconclusive: 13.5 µM [inhibitor, partial curve, poor fit]"
Cc1ccccc1CN1CCC(CNc2ncnc3onc(-c4ccc(Cl)cc4)c23)CC1,inactive: -1.58%,
Cc1nc2sccn2c1-c1nc(-c2cc3ccccc3o2)cs1,,"inconclusive: 12 µM [inhibitor, partial curve]"
COc1ccc([C@H]2CC(=O)C=C(c3ccc(C)cc3)C2)cc1,inactive: -13.8%,
Cc1ccc(NC(=O)C2CCCN(c3ncnc4c3nc3n4CCCCC3)C2)cc1F (configuration not stated),inactive: -4.89%,
Cc1cc(C)c2c(=O)[nH]c(SCC(=O)c3ccc(F)c(C)c3)nc2n1,,"inconclusive: 8.49 µM [inhibitor, partial curve, poor fit]"
NC(=O)[C@@H]1CCCN1C(=O)c1ccc2oc(CCc3ccccc3)nc2c1,inactive: -19%,
Cc1ccc(C(=O)ONc2ccc(N=O)cc2)cc1,,active: 0.0301 µM
CCN(C(=O)/C=C/c1ccc2c(c1)OCO2)c1ccccc1,,"inconclusive: 26.9 µM [inhibitor, partial curve, poor fit]"
Cc1ccc(CN2CCSc3ccc(C(=O)Nc4ccc(Cl)cc4)cc32)cc1,,"inconclusive: 42.6 µM [inhibitor, partial curve, poor fit]"
[O-]/C(=C(\C(=S)Nc1ccccc1F)[n+]1ccccc1)c1ccc(-c2ccccc2)cc1,,"inconclusive: 21.3 µM [inhibitor, partial curve, poor fit]"
COc1cc(NC(=O)Nc2cccc(Cl)c2)c(C(=O)O)cc1OC,,active: 26.9 µM

SMILES,"activity change, negative = inhibition",Potency
CCOc1ccc(CCNC(=O)CCCc2cc(-c3ccc(OCC)cc3)on2)cc1,inactive: -7.85%,
O=C(O)c1ccc(-c2nc(-c3ccc(Cl)c(Cl)c3)cs2)cc1,,active: 13.5 µM
CCOc1ccc2c(c1)sc(=NC(=O)C1CC1)n2C,,active: 7.57 µM
COC(=O)c1ccc(N=NN2CCCCC2)cc1,,active: 8.49 µM
O=C(Nc1cccc([N+](=O)[O-])c1)C(=O)N1CCCCC1,,"inconclusive: 23.9 µM [inhibitor, single point]"
Cc1cccc(N2C(=O)C(CC(=O)Nc3cccc(F)c3)N(Cc3cccs3)C2=O)c1 (configuration not stated),inactive: -2.87%,
N/C(=N\OC(=O)c1cccc(C(F)(F)F)c1)c1cnccn1,,"inconclusive: 3.38 µM [inhibitor, full curve]"
O=C(NC(=S)Nc1cccc(NC(=O)c2ccccc2Cl)c1)c1cccs1,,"inconclusive: 3.79 µM [inhibitor, full curve]"
c1ccc(-c2noc(-c3cccs3)n2)nc1,,active: 3.01 µM
Cc1cccc(Nc2nc(N)nc(CSc3nccn3C)n2)c1,,"inconclusive: 26.9 µM [inhibitor, single point]"
Cc1noc(C(=O)Nc2ccc(Cl)cc2)c1Cl,inactive: -0.408%,
COc1ccc(C(CC(=O)Nc2ccc(C)cn2)N2Cc3ccccc3C2=O)cc1OC (configuration not stated),inactive: -2.1%,
COc1ccc2cc(C(=O)/C=C/c3cc(OC)c(O)c(OC)c3)ccc2c1,,active: 1.9 µM
CN(c1ccccc1)S(=O)(=O)c1cccc(C(=O)Nc2nn[nH]n2)c1,inactive: 3.18%,
COc1cc(OC)cc(C(=O)Nc2cccc(NC(=O)c3ccccc3)c2)c1,,active: 16.9 µM
Cc1ccc(Nc2nnc(SCC(=O)NCc3ccco3)s2)cc1,,active: 13.5 µM
CCOc1ccccc1C1N=C(N)Nc2nc3ccccc3n21 (configuration not stated),inactive: -2.24%,
COC(/C(=N/O)c1ccc(Cl)cc1)c1ccccc1 (configuration not stated),,"inconclusive: 30.1 µM [inhibitor, partial curve, poor fit]"
Cc1nc(NNC(=O)c2ccc([N+](=O)[O-])cc2)cc(-c2ccccc2)n1,,"inconclusive: 23.9 µM [inhibitor, single point]"
Nc1nc(-c2cc(O)ccc2[N+](=O)[O-])cc(-c2ccccc2)c1[N+](=O)[O-],inactive: 3.27%,
O=C(O)c1ccc(Cl)c(S(=O)(=O)Nc2ccc3cn[nH]c3c2)c1,,"inconclusive: 16.9 µM [inhibitor, partial curve, poor fit]"
COc1cc(C(=O)NCc2ccc3c(c2)cc(C)n3C)cc(OC)c1OC,,"inconclusive: 37.9 µM [inhibitor, partial curve, poor fit]"
Cc1ccc(-c2nnc(N3CCCCC3)c3ccccc23)cc1S(=O)(=O)N1CCN(C)CC1,,"inconclusive: 30.1 µM [inhibitor, partial curve, poor fit]"
COc1ccc(-c2noc(CN(C)C(=O)Nc3ccccc3)n2)cc1,inactive: -8.04%,

# From PubChem BioAssay AID588342 (National Center for Advancing Translational Sciences (NCATS), 2011)
